# The source gives no read counts; variants with many changes may rest on few reads.
# B1: OR4K15 (parent)
# chain: GUUAACGGUCAUAGGCCAUGGAAACUAGGAGCACCAUUUCGCUGCCAGUGAAGAAAUGAACAAAGAAAAUCUGGGCCAGGCAGGCAUCAAAAGAAAUAGUCUUGCGCUCAACCAGAAAGUCUGUAAUCAUUUUAAGGGUA
# Variants of: B1
# Test: self-cleavage, relative activity (ratio to wild type); higher = more cleavage; in vitro, sequencing; the parent is a self-cleaving ribozyme
row,Variant,self-cleavage
1,U19A A22G A140U,1.25
2,A56G U102A U130C,0.97
3,A5G A22U A24C A33G A92U,1.15
4,U9C A18G A78G A89U A95G,0.49
5,A47C A90U A98G U100C,0.87
6,A78G A91G A96G,0.2
7,A18G A63G U122C,1.21
8,U2A A55G U122C,0.22
9,U108C U120C U127C,0.01
10,U37C A94G G119A,1.84
11,G31A A89U U122C,1.75
12,A36G G41A A118U U124C,0.25
13,C6A A27G U39C A67U A78G A118G,0.09
14,A23U A95G A118U,1.73
15,A55G A92G A135G,1.65
16,U37G U43C C45U A118G,0.85
17,U19A A54G A55G A63G U100C,2.07
18,A51G A55G U103C A110G,0.04
19,U37C U39C U103C A111U G137A,0.22
20,A56U U57G G58A A60C C61A A64G G65A U122C,0.66
21,A56G A59U U130C,1.37
22,A51G A94G G99A G115A,0.02
23,A56G U57A A82U A86G U133A,0.26
24,U2C A59G U72C A111G,0.03

row,Variant,self-cleavage
1,A52G G58U U108A A126G A140G,0.01
2,A18U A51G A78G A86U,0.38
3,A27U U102C U120A U122C U127C,2.28
4,A18G A67G A78G,0.5
5,U3C A13G A92G U124A A126G,0.51
6,U19A A96G U103C,1.15
7,U38C A66U A92G A125G A140G,0.99
8,A60G A82U U127C,0.13
9,A13G U39A A95G,0.87
10,A22G U39A U102C A116G,1.2
11,U37C U57C A89G,1.09
12,A24G A47G A135U,1.02
13,A22G A90G U103C,0.21
14,U39C U43A A129G,0.78
15,U38C A62U A95G,2.11
16,G74A A94G A117G,0.16
17,A67G A68G U72C A90G A96G,0.3
18,A30G A67U U132C,1.59
19,A54G A86U U130C,1.72
20,A55G A90G A126G U131C U139G,1.29
21,A22G A59U A110U U132C,1.61
22,C17U A22G U38A A69G,0.76
23,C10U G14A A110G A117G,0.28
24,U38C U43C U131C,1.31

row,Variant,self-cleavage
1,A18G U49A G80A U124A,0.14
2,A4U C25U A59G A69G U70C A134G,0.48
3,G50U A56G U87C A125G U130C,0.76
4,U19C A89G U102C C107U,0.01
5,A33G A95G U120C,0.48
6,G31C U39C A52G A62U A89U U127C,0.72
7,A5G U49C A55U A60G,1.09
8,U9C A63G U97C,2.25
9,A18G U49C A56G A89G A98G U108C A110G G137U,0.01
10,U2C A13G A23U A63G,1
11,A55G U87C A111U,0.02
12,A24G A56G U72A U127C,0.36
13,A4G A62G U70C,1.08
14,A24G A91G U122C,0.54
15,A55G A82G A111U,0.12
16,U87G A96U U131C,0.44
17,A5U U19A U70C U130C,0.62
18,A30G A55U A67G A89G,0.94
19,A69C A91U U108C,0.01
20,U37C A66G A118G,0.59
21,A23U A96G G123A,0.8
22,A66U A116U U131C,0.03
23,A30G A52G A78U,0.35
24,A54G A60G G136A,0.95

row,Variant,self-cleavage
1,A62G A64G A67G A118G A135G,0.62
2,U39C U100C U127C,1.03
3,A4G A90G C109U,0.71
4,A5G A60U U103A U130A,0.12
5,U70C A78G A96G U122C,0.18
6,A33G A55G U72G A78G,0.2
7,U43A A90U A111U,0.04
8,A18G A91G U108G,0.06
9,G58U A89U U100C,1.89
10,A36U U38C A86U U122A U127A,1.34
11,U3C A18C A82C A125C,0.23
12,U38C A56G A94G,2.12
13,U3C A59G A82G,0.32
14,A5G A59G G74U U120C,0.19
15,A47G A86G C101U,0.05
16,A95G U97G A116G A125G,0.32
17,A5G A90U U130C,0.5
18,A5G A27U A90G,1.03
19,U43C A78G G79C A94G A111G U139C,0.03
20,G14U A22U A52G,2.47
21,A22U A60G A82G U87C A94G G106A U132C,0.01
22,A18G A36G A51G U120C,1.07
23,A30G A33G A64G U100C,2.18
24,U2C A68G A78G A98G A110U U120C,0.06

row,Variant,self-cleavage
1,A33U A90G A114G,0.11
2,A62G A68G C81U A89G U131C,0.08
3,A86U A89G G115A,0.42
4,A54G A68G U108A,0.01
5,U26C A52U U122A,0.6
6,A24G U43C A56G,1.62
7,A62G U72C A82C U131C A140G,0.06
8,A52G A56G A60G A62U A66G A69G U97C,0.53
9,A78G A86G A114G A116G,0.03
10,U26C A51U A56G U127C,0.35
11,A51G A52G A111G,0.01
12,A78G A95G G104A,0
13,A52G A59G A91G U122C,0.92
14,A30G A51U A55G C85U A125G A129G,0.1
15,A5G U38C A78G,1.34
16,U39C U102C U108A A117G,0
17,A24G A64G A89G A96G,1.55
18,A78G A89U A98U,0.25
19,A24C A33G A62G A67G U122C,0.28
20,U38C A64G A95G,2.09
21,U49C A56G A114G,0.16
22,U72C A96G G115A A125G,0
23,U2C A64G A111U,0.38
24,U38C U87A A125G,0.53

row,Variant,self-cleavage
1,A24G U37C A86G G123A U139C,0.9
2,U49C A64G U72A,0.38
3,A30G A54G U70C A118G,0.22
4,U2C A92G U100C A129U,1.18
5,U9C A27G U49C A63G A64G U108C A129G A140G,0.01
6,A18G U108C U122C,0.01
7,A92G A116G A118G,0.33
8,A5G U38C U70C A82G,0.61
9,A51U U122C U139A,1.19
10,U37C A95G A114G A117G,0.98
11,U49A G53U A78G U102C,0.28
12,A92G C109U A117C A126G U130G,0.03
13,A23G U43C U108C U133A,0.02
14,U3A A47G A59G U70C,0.23
15,A30G U38C A82G A134G,0.7
16,A22G U108C A117G,0
17,A62G A110C A129G,0.09
18,G15U A63G A66G,1.5
19,A11G A52G A59G,0.87
20,A30C A82G A95G C112A G137U,0.03
21,C10U U19C A55G A78G G106A A116G,0.02
22,A68G U70C A126G,0.66
23,A54U A66G A135G,2.06
24,C25U A36G C46U U102C G115U,0.12

row,Variant,self-cleavage
1,A30G A56G A126U,0.92
2,A11G U38C A89G,1.07
3,A33G U120C U122C,0.3
4,G29A U38C U57C,1.43
5,C61U U70A U127C,0.9
6,G7U A55G A64G U103C U132C,1.17
7,U2C C61U A89G U108C,0.11
8,A51U A95G A118G A140U,1.22
9,A56G U102C A140G,1.71
10,A30G U57A A98G,0.51
11,U19C A82G A110G,0.06
12,U43A A52G G58A U127A A135C,1.82
13,A36U A67G U102C,1.92
14,A30G A68G U70G U108C A110U A111U,0
15,A33U A91G A94G A110G A134U,0.1
16,U9A A52G C109U,0.45
17,U108G A110U A126G,0
18,A55G A117U U122C,1.11
19,A18G G65U G73A C77U,0.26
20,A5G A24G U37C A62G A82C C85U A110G A111G,0.07
21,U19A A30U A78U A86G,0.11
22,U37C A59U A96G,2.05
23,U100C U103C A126G,2.17
